The other results are listed elsewhere or left out.

This test has as its system PfHDP1 homeodomain (GST-tagged). The experiment in a line: gcPBM binding intensity (ln(normalized median fluorescence intensity)); higher = stronger DNA binding. An outline of the steps:
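GST-fused DNA-binding domains of P. falciparum, expressed in E. coli, were applied at about 25 μg on average for 1 h to an Agilent 4 × 180k array of primer-extended double-stranded 36-bp intergenic genomic probes and negative controls. Binding intensity is the highest Masliner-normalised natural-log median intensity across replicate spots of either probe orientation, measured with Alexa488 anti-GST antibody and a 488 nm scan.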
With ATAGGATGCATATGAGTGCATTCTGTGTTGTTATAA, the “gcPBM binding intensity (ln)” value was 7.91.

On to “AGATTAAAATATATACGTACATATTATTAATTAATA [XGTACX_site3487]”, for which the “gcPBM binding intensity (ln)” value was 6.31.

Consider “TTTATTTTTATTTAAAGTACATATCCATTTATTCCT [XGTACX_site1914]”, for which the “gcPBM binding intensity (ln)” value came out at 5.98.

On to “TACTTGTTATTAACATGTACAAAAAAAAAAAAAATT [XGTACX_site1338]”, for which the “gcPBM binding intensity (ln)” value stood at 6.27.

On to AAACAATATTCTCAAGTGCAAAAAGAAAAAAGAAAT, for which the “gcPBM binding intensity (ln)” value amounted to 9.37.

For TAAAATTTGTACATAGTGCAATTTTTTTTTTTTTTT, the “gcPBM binding intensity (ln)” value came out at 8.53.

On to “ATCTCTGTATGTTAGACACACATATTTTAATATGTT [CACACA_site4244]”, for which the “gcPBM binding intensity (ln)” value amounted to 6.5.

Regarding “TCACCATATAAACGTGCACACTACAAAAATATATAA [CACACA_site5413]”, the “gcPBM binding intensity (ln)” value came out at 9.71.

As for “ATATAAATATTATAATGTACATATAATATATTTATT [XGTACX_site5212]”, the “gcPBM binding intensity (ln)” value was determined as 6.21.

As to “TATTTATTTAAAAATTGTACGTAGGATTATACACTT [XGTACX_site286]”, the “gcPBM binding intensity (ln)” value was 6.39.

Take “CTTTTATTTTATTTTAGTACGCAACATTCTCTATAT [XGTACX_site7279]”: the “gcPBM binding intensity (ln)” value was 7.1.

On to “AATTCGTACCTCATTTGTACATATATATATATATAT [XGTACX_site5513]”, for which the “gcPBM binding intensity (ln)” value amounted to 9.34.

Take “CATACACCCATACATACACACATACAGATATATATA [CACACA_site5123]”: the “gcPBM binding intensity (ln)” value is 7.25.

Turning to “ATATATTGCACTTTTTGTACATAATGAAAAATTTTT [XGTACX_site8223]”, the “gcPBM binding intensity (ln)” value amounted to 9.44.

Take “ACCTTAATAAAAAAAAGTACAAACATGTTCAAATTG [XGTACX_site1556]”: the “gcPBM binding intensity (ln)” value was 7.54.

In the case of “TACATATTGATATATACACACAAAAAAATAAATTCT [CACACA_site6198]”, the “gcPBM binding intensity (ln)” value stood at 6.3.

“AATAAATAAATATATATATATATATATATATATATA [CACACA_negctrl_site365]”: the “gcPBM binding intensity (ln)” value amounted to 9.36.

For the sequence “ACAATTTACACTTAAACACACAAAAAAAAGTTATAT [CACACA_site7056]”, the “gcPBM binding intensity (ln)” value was 6.84.

Take “TATCAAAATTGTAATTGTACTTGTAAGTGGATATAT [XGTACX_site5949]”: the “gcPBM binding intensity (ln)” value turned out to be 6.75.

Turning to “GTATTGCATGAGGACACACACAAAAAAAATATAGAT [CACACA_site6500]”, the “gcPBM binding intensity (ln)” value turned out to be 6.92.

Take “TATATATTTCATCCTTGTACACATTTGTGTTTACAT [XGTACX_site1132]”: the “gcPBM binding intensity (ln)” value was found to be 6.81.

With “TTTTTTTTTTTTTTCTTACAATTTATTGAACAAATG [XGTACX_negctrl_site515]”, the “gcPBM binding intensity (ln)” value worked out at 6.41.

As to “AGTGATTATTAATAATGTACATATCTATAAATATAT [XGTACX_site4734]”, the “gcPBM binding intensity (ln)” value amounted to 6.43.

As to “TAGTTTTTTATATATTGTACAAATAATATATGATAT [XGTACX_site4220]”, the “gcPBM binding intensity (ln)” value worked out at 6.6.

On to “ATTTATACTTATGTATGTACATATATACATATGTAT [XGTACX_site3979]”, for which the “gcPBM binding intensity (ln)” value amounted to 6.37.

For the sequence “ACTAAAAAATATATATGTACATAATAATATATTATT [XGTACX_site1260]”, the “gcPBM binding intensity (ln)” value was determined as 6.66.

On to “TATCCTTATATTTGCACACACACACTAGAAAATGAA [CACACA_site4714]”, for which the “gcPBM binding intensity (ln)” value was 10.7.

Turning to “AAAAAAAAAAAAAAAAAAAACGAAAAACATCAAAGA [TGCATGCA_negctrl_site78]”, the “gcPBM binding intensity (ln)” value worked out at 6.81.

As to ATAATAAAATAACTAGTGCATATTCAAAGGATTCAG, the “gcPBM binding intensity (ln)” value came out at 8.65.

On to “ATTATGTGTCCACATGTAAGCTATCTTACTTATATA [CACACA_negctrl_site1227]”, for which the “gcPBM binding intensity (ln)” value is 6.49.

As to “TACAAAAAAATAAAAAAAATTAAATAAATAAATATA [CACACA_negctrl_site45]”, the “gcPBM binding intensity (ln)” value stood at 6.01.

As to “ATAGTTACACAATGGTGTACAAGTCAATATATTTCT [XGTACX_site4614]”, the “gcPBM binding intensity (ln)” value is 6.42.

“CATATTTGTGGACACACACACATATTTATATATATA [CACACA_site5887]”: the “gcPBM binding intensity (ln)” value is 7.16.

Take “ATAATAAATAAAATAACACACATATATAAATATATA [CACACA_site170]”: the “gcPBM binding intensity (ln)” value worked out at 6.27.

In the case of “ATTAATAAAAAATTTTAAAAAATAAATAAAATAAAA [TGCATGCA_negctrl_site113]”, the “gcPBM binding intensity (ln)” value was determined as 6.52.

With “ATATATATTTAACAATGTACTTATTCAGAGAATAAT [XGTACX_site574]”, the “gcPBM binding intensity (ln)” value amounted to 6.24.

On to “AAAATATTTTTATAATGTACATATAGTTGTATTTGT [XGTACX_site8724]”, for which the “gcPBM binding intensity (ln)” value stood at 6.9.

With “ATTTTTATTCAGTTCACACACGCTTTAATATTATAT [CACACA_site3465]”, the “gcPBM binding intensity (ln)” value is 6.92.

For “CCCTTAATATAAAGCACACATATATATAATATATAT [CACACA_site4439]”, the “gcPBM binding intensity (ln)” value turned out to be 6.96.

“AAGTTGAAATAATGTGCACACATTTTTTTTTTTTTT [CACACA_site3368]”: the “gcPBM binding intensity (ln)” value was determined as 9.16.

With “TACATATATTTTTATACATGCATAACTTAGGACTTT [TGCATGCA_site113]”, the “gcPBM binding intensity (ln)” value was 6.43.

Take “TACCATATTTCTTCAAGTACGCATTATGTTAAAAAG [XGTACX_site345]”: the “gcPBM binding intensity (ln)” value was 6.67.

On to “ATATTTATATATATCATACACACTAATATGTATATT [CACACA_site3409]”, for which the “gcPBM binding intensity (ln)” value worked out at 6.44.

For the sequence “TCCTTTTTGAAATGTTGTACTTTTTTTATCTTTCAT [XGTACX_site953]”, the “gcPBM binding intensity (ln)” value came out at 6.57.

Consider “TAATTATATATATACACACACATACAGACAAATAAA [CACACA_site3412]”, for which the “gcPBM binding intensity (ln)” value amounted to 7.41.

On to “GAAATTTGTTATTGCACACAAATTTTTCTTTTTTTA [CACACA_site2339]”, for which the “gcPBM binding intensity (ln)” value stood at 9.6.

Take “TATTTTTTTTTTTTTTTTTTTTTAAAACATATCAAT [CACACA_negctrl_site925]”: the “gcPBM binding intensity (ln)” value was 6.06.

Regarding “ATTTTTTTTTTTTTATGTACATATAGGTGCAAATCA [XGTACX_site6748]”, the “gcPBM binding intensity (ln)” value was 11.1.

As to “ACAATGTCATTTGCTAGTACGCATATTGGTTGTAAA [XGTACX_site8924]”, the “gcPBM binding intensity (ln)” value is 6.16.

Regarding “TAAAAAAAAAAAAAAAGTACACACATACATATAAAT [XGTACX_site3752]”, the “gcPBM binding intensity (ln)” value came out at 6.57.

For the sequence “ATATATATATATAATTGTACATATAATATAATATTA [XGTACX_site5216]”, the “gcPBM binding intensity (ln)” value came to 9.07.

In the case of “ATATATATTATATATAGTACTTTTTTGCGCAAATAT [XGTACX_site6849]”, the “gcPBM binding intensity (ln)” value came out at 8.17.

Consider “AACACATGCTTGGTCACACACGTATGCATATTTAAA [CACACA_site5206]”, for which the “gcPBM binding intensity (ln)” value stood at 6.86.

For the sequence “AATATGTTATAAATATGTTATAAATAATAAATAAAT [GTGCAC_negctrl_site135]”, the “gcPBM binding intensity (ln)” value amounted to 6.46.

As for “AAAAAAAAAAAACACACACACACATACACATACATA [CACACA_site2858]”, the “gcPBM binding intensity (ln)” value stood at 6.83.

Regarding “ATAATAATTAACCTATGTACATAGGAAAGTCATAAA [XGTACX_site4387]”, the “gcPBM binding intensity (ln)” value came to 6.93.

As for “GAAGAAAAATAAAAAGTGCAAAAAAAGTAAAAATTT [GTGCAC_site9897]”, the “gcPBM binding intensity (ln)” value amounted to 8.52.

The values are drawn from the supplement of paper PMC11417369.
